# The whole screen tested about 310,000 compounds, of which about 2,200 (0.71%) showed an effect of 50% or more. The effect is printed as a negative number. The list shows a part of the results.
# Molecular target: human ether-à-go-go-related gene (hERG) potassium channel (human, UniProt Q12809)
# Test: primary screen, population patch clamp on CHO cells stably expressing hERG
# Chain of human ether-à-go-go-related gene (hERG) potassium channel (Q12809 whole entry, looked up): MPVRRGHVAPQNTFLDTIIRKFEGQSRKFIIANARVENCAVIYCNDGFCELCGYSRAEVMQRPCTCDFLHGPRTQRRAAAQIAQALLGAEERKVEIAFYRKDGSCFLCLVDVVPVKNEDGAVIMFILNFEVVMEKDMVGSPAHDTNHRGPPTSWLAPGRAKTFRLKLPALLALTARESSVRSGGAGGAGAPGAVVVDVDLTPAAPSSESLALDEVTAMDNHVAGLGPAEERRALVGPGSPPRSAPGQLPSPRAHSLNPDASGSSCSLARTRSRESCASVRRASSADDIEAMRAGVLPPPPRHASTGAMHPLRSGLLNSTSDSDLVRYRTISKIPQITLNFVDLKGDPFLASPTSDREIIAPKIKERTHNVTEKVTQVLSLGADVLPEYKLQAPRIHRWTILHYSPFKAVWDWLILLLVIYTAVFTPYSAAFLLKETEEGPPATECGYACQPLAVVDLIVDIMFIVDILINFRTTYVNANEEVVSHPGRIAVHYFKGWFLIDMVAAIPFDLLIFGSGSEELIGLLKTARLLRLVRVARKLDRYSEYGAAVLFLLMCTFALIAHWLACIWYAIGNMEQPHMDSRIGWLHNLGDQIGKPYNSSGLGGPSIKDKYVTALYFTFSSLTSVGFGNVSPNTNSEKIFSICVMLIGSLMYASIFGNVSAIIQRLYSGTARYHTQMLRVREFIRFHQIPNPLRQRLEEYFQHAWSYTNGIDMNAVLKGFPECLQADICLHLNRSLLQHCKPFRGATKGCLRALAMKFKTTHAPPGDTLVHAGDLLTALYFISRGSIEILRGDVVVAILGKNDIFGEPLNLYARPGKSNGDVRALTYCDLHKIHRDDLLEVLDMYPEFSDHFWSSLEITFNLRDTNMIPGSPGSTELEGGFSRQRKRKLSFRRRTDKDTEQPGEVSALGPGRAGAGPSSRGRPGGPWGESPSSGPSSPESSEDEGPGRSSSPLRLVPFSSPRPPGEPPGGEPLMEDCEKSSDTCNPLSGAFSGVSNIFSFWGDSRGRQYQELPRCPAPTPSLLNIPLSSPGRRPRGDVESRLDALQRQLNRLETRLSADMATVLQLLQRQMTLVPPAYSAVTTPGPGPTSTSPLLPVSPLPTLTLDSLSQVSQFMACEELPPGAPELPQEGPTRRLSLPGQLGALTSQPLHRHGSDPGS
row,SMILES,"hERG current change (%, negative = inhibition) at 1uM"
1,OC(COc1cc(Cl)c(Cl)cc1Cl)CN1CCN(c2ncccn2)CC1 (stereo not shown),2.33%
2,CCOC(=O)c1c(-c2ccccc2Cl)csc1NC(=O)CSc1nc(C)cc(=O)[nH]1,2.68%
3,CN=C1S/C(=C\c2ccc(O)c(OC)c2)C(=O)N1C,14%
4,O=c1[nH]nc(-c2ccc(F)cc2)cc1Cc1cccs1,5.41%
5,O=C(N=C1SC2CS(=O)(=O)CC2N1CCc1ccccc1)C1CCCCC1 (stereo not shown),2.75%
6,CS(=O)(=O)Nc1ccc(Oc2ncccn2)cc1,12.9%
7,CC(C)NC(=O)COc1coc(CN2CCN(c3cccc(Cl)c3)CC2)cc1=O,9.34%
8,Cc1ccc(S(=O)(=O)N(C)c2ccccc2C(=O)Nc2ccc3c(c2)OCCO3)cc1,10.8%
9,CCOC(=O)N1CCN(C(=O)C2CCN(C(=O)c3ccc(C(C)(C)C)cc3)CC2)CC1,4.36%
10,CCOc1ccc(Nc2ncnc3c2cnn3Cc2ccccc2)cc1,8.72%
11,N#Cc1cc([N+](=O)[O-])ccc1NC(=O)COC(=O)C12CC3CC(CC(C3)C1)C2,5.17%
12,Br.C1=C(c2cccc3ccccc23)N2CCN=C2S1,-2.67%
13,CCc1nc(OCC(=O)c2ccccc2)c(C#N)c2c1COC(C)(C)C2,11.1%
14,O=C1C=C(c2cc(F)ccc2F)C[C@@H](c2ccc(F)cc2)C1,0.529%
15,COc1ccccc1N1CCN(CC(O)COc2cccc3ccccc23)CC1.Cl (stereo not shown),-11.3%
16,Cc1ccc(NC(=O)CNC(=O)C2CCCCC2)nc1,9.95%
17,COc1ccc(-n2c(=O)c3ccccc3n(Cc3ccccc3F)c2=O)cc1OC,7.12%
18,O=C(NC(=S)NCC1CCCO1)C(c1ccccc1)c1ccccc1 (stereo not shown),7.08%
19,CCOC(=O)/C(C#N)=C/c1cc(C)n(-c2ccccc2)c1C,19.1%
20,CN(CC(=O)Nc1ccc(S(=O)(=O)N2CCCC2)cc1)CC(=O)Nc1cccc(F)c1,-0.496%
21,COc1ccccc1NS(=O)(=O)/C=C/c1ccccc1,4.41%
22,O=C(NCCCNC(=O)c1ccc(F)cc1)c1ccc(F)cc1,17.3%
23,COc1cccc(NC(=O)N2CCCC(C(=O)NCc3ccc(F)cc3)C2)c1 (stereo not shown),4.35%
24,N#Cc1nc(COc2ccc(Cl)cc2)oc1N1CCCC1,-2.53%
25,CCOC(=O)C1CCCN(CC(O)COc2cccc(C)c2)C1.Cl (stereo not shown),5.64%
